This is one part of the list. Where only a bound is given, the exact number is not on record here.

To fix the notation:
B1: PhoQ; a variant is named by its letters at X, in order, P23837 (parent)
chain: MKKLLRLFFPLSLRVRFLLATAAVVLVLSLAYGMVALIGYSVSFDKTTFRLLRGESNLFYTLAKWENNKLHVELPENIDKQSPTMTLIYDENGQLLWAQRDVPWLMKMIQPDWLKSNGFHEIEADVNDTSLLLSGDHSIQQQLQEVREDDDDAEMTHSVAVNVYPATSRMPKLTIVVVDTIPVELKSSYMVWSWFIYVLSANLLLVIPLLWVAAWWSLRPIEALAKEVRELEEHNRELLNPATTRELTSLVRNLNRLLKSERERYDKYRTTLTDLTHSLKTPLXXLQXXLRSLRSEKMSVSDAEPVMLEQISRISQQIGYYLHRASMRGGTLLSRELHPVAPLLDNLTSALNKVYQRKGVNISLDISPEISFVGEQNDFVEVMGNVLDNACKYCLEFVEISARQTDEHLYIVVEDDGPGIPLSKREVIFDRGQRVDTLRPGQGVGLAVAREITEQYEGKIVAGESMLGGARMEVIFGRQHSAPKDE

Variants of B1 are the subject of this test. Nature of the test: enrichment ratio after two sorts for PhoP signalling (ratio (wild type AVST 3.29)); higher = more functional. The following applies: with PhoP (E. coli).
For YIAL, the enrichment ratio came to 2.7.

In the case of YNHV, the enrichment ratio is at most 0.25.

Take TQAF: the enrichment ratio amounted to 10.3.

Take KCDA: the enrichment ratio is at most 0.25.

For TMVC, the enrichment ratio is at most 0.25.

Take DWSC: the enrichment ratio was at most 0.25.

Regarding GYQH, the enrichment ratio is at most 0.25.

Take MHWI: the enrichment ratio was at most 0.25.

For the variant LPGE, the enrichment ratio is at most 0.25.

For LIHV, the enrichment ratio is at most 0.25.

For YSQW, the enrichment ratio was at most 0.25.

NDLG: the enrichment ratio is at most 0.25.

For VWTQ, the enrichment ratio was at most 0.25.

In the case of DNGC, the enrichment ratio was at most 0.25.

On to WELF, for which the enrichment ratio is at most 0.25.

As to DAHH, the enrichment ratio is at most 0.25.

As for YRTW, the enrichment ratio is at most 0.25.

On to VHPG, for which the enrichment ratio is at most 0.25.

For WIHH, the enrichment ratio was at most 0.25.

For AKRW, the enrichment ratio was at most 0.25.

Turning to NFVH, the enrichment ratio was at most 0.25.

Take HHKI: the enrichment ratio is at most 0.25.

For the variant DGFC, the enrichment ratio is at most 0.25.

Regarding QYND, the enrichment ratio is at most 0.25.

DMYE: the enrichment ratio is at most 0.25.

On to WKVW, for which the enrichment ratio worked out at 2.6.

For the variant RDAV, the enrichment ratio was at most 0.25.

On to WKHE, for which the enrichment ratio was at most 0.25.

Consider LNEC, for which the enrichment ratio was at most 0.25.

For the variant MTQH, the enrichment ratio was at most 0.25.

For the variant IPYM, the enrichment ratio was at most 0.25.

Consider QAMN, for which the enrichment ratio is at most 0.25.

Turning to YRPG, the enrichment ratio is at most 0.25.

LAHT: the enrichment ratio is at most 0.25.

In the case of WMGW, the enrichment ratio was at most 0.25.

For the variant QCVH, the enrichment ratio is at most 0.25.

As for INYY, the enrichment ratio is at most 0.25.

As to RNQW, the enrichment ratio is at most 0.25.

Consider LYTK, for which the enrichment ratio was at most 0.25.

As to WCNR, the enrichment ratio is at most 0.25.

GIWN: the enrichment ratio is at most 0.25.

On to KIYK, for which the enrichment ratio is at most 0.25.

With FGDK, the enrichment ratio was at most 0.25.

For the variant VTFM, the enrichment ratio was found to be 1.27.

Take DRMK: the enrichment ratio is at most 0.25.

Turning to AQTS, the enrichment ratio was determined as 12.8.

Take DPDG: the enrichment ratio is at most 0.25.

Regarding CHFM, the enrichment ratio was at most 0.25.

For the variant VDIW, the enrichment ratio is at most 0.25.

MDWN: the enrichment ratio is at most 0.25.

In the case of WFIR, the enrichment ratio was at most 0.25.

Turning to TLPR, the enrichment ratio is at most 0.25.

On to FPSL, for which the enrichment ratio is at most 0.25.

LRIK: the enrichment ratio is at most 0.25.

For FAWA, the enrichment ratio was at most 0.25.

Consider FTKY, for which the enrichment ratio was at most 0.25.

For the variant NPWL, the enrichment ratio is at most 0.25.

For AFGH, the enrichment ratio was at most 0.25.

Consider IKWP, for which the enrichment ratio was at most 0.25.

For the variant FLGY, the enrichment ratio is at most 0.25.

On to DWMH, for which the enrichment ratio was at most 0.25.

For DGMN, the enrichment ratio is at most 0.25.

For the variant FTMV, the enrichment ratio worked out at 6.33.

Regarding FLRD, the enrichment ratio was at most 0.25.

With YTHY, the enrichment ratio was at most 0.25.

With PTQR, the enrichment ratio is at most 0.25.

For DWSE, the enrichment ratio is at most 0.25.

On to PAPC, for which the enrichment ratio was at most 0.25.

Regarding MCKF, the enrichment ratio was at most 0.25.

As for MTNV, the enrichment ratio is at most 0.25.

Turning to PPPF, the enrichment ratio is at most 0.25.

With DISK, the enrichment ratio is at most 0.25.

For the variant WIAV, the enrichment ratio was at most 0.25.

On to ICCT, for which the enrichment ratio is at most 0.25.

Consider EIMY, for which the enrichment ratio was at most 0.25.

As for PVVT, the enrichment ratio was at most 0.25.

Regarding QAPA, the enrichment ratio was at most 0.25.

In the case of SPQS, the enrichment ratio is at most 0.25.

In the case of GYWN, the enrichment ratio is at most 0.25.

MCLF: the enrichment ratio is 4.54.

For WPWQ, the enrichment ratio is at most 0.25.

Consider AGWV, for which the enrichment ratio was at most 0.25.

RKIV: the enrichment ratio was at most 0.25.

On to GDIE, for which the enrichment ratio was at most 0.25.

With VHVD, the enrichment ratio is at most 0.25.

Consider NHNG, for which the enrichment ratio is at most 0.25.

With KEHR, the enrichment ratio was at most 0.25.

Regarding TSPP, the enrichment ratio was at most 0.25.

On to PVVP, for which the enrichment ratio was at most 0.25.

In the case of HAAS, the enrichment ratio was at most 0.25.

As to AQRS, the enrichment ratio was at most 0.25.

In the case of HNGY, the enrichment ratio was at most 0.25.

Consider LSHL, for which the enrichment ratio was determined as 8.33.

As for IQHI, the enrichment ratio was at most 0.25.

Turning to PLPL, the enrichment ratio is at most 0.25.

For NFQS, the enrichment ratio is at most 0.25.

In the case of DRWL, the enrichment ratio is at most 0.25.

QING: the enrichment ratio is at most 0.25.

For KVKK, the enrichment ratio was at most 0.25.

As to SNQR, the enrichment ratio was at most 0.25.

Consider LNPI, for which the enrichment ratio was at most 0.25.

With SATD, the enrichment ratio was at most 0.25.

With NCDP, the enrichment ratio is at most 0.25.

Take MECH: the enrichment ratio is 56.6.

For the variant YDFN, the enrichment ratio was at most 0.25.

For KLCW, the enrichment ratio is at most 0.25.

For GYFM, the enrichment ratio is at most 0.25.

PTKQ: the enrichment ratio is at most 0.25.

On to RAHH, for which the enrichment ratio is at most 0.25.

For the variant YNPC, the enrichment ratio is at most 0.25.

Regarding QDWA, the enrichment ratio was at most 0.25.

As for DCME, the enrichment ratio is at most 0.25.

As to YQGR, the enrichment ratio is at most 0.25.

As for IFFL, the enrichment ratio was at most 0.25.

Regarding SLDE, the enrichment ratio was at most 0.25.

On to MSKR, for which the enrichment ratio was at most 0.25.

With PNST, the enrichment ratio was at most 0.25.

KAAR: the enrichment ratio came out at 2.14.

For the variant QIMI, the enrichment ratio is at most 0.25.

Take STNQ: the enrichment ratio stood at 1.23.

As to PDDG, the enrichment ratio was at most 0.25.

For PEFP, the enrichment ratio was at most 0.25.

LMVF: the enrichment ratio is at most 0.25.

For the variant RVFY, the enrichment ratio is at most 0.25.

For RVCE, the enrichment ratio is at most 0.25.

Regarding FTAS, the enrichment ratio is at most 0.25.

For the variant ALAY, the enrichment ratio is 1.84.

Regarding WQLS, the enrichment ratio is at most 0.25.

On to IPDL, for which the enrichment ratio was at most 0.25.

As to KRPI, the enrichment ratio is at most 0.25.

Regarding MDYA, the enrichment ratio was at most 0.25.

Regarding YWWM, the enrichment ratio was at most 0.25.

For the variant TFMD, the enrichment ratio was at most 0.25.

As to IHVA, the enrichment ratio is at most 0.25.

Regarding PTCV, the enrichment ratio is at most 0.25.

For YEFP, the enrichment ratio is at most 0.25.

Regarding ISFK, the enrichment ratio is at most 0.25.

In the case of LHNF, the enrichment ratio was at most 0.25.

In the case of HDFW, the enrichment ratio was at most 0.25.

On to QCCF, for which the enrichment ratio was at most 0.25.

VSMG: the enrichment ratio turned out to be 2.61.

For the variant NPFF, the enrichment ratio was at most 0.25.

For the variant SCHG, the enrichment ratio was at most 0.25.

As for DQGG, the enrichment ratio was at most 0.25.

As to RVTM, the enrichment ratio is at most 0.25.

As to WCPR, the enrichment ratio was at most 0.25.

For HCII, the enrichment ratio was at most 0.25.

For the variant DSQW, the enrichment ratio was at most 0.25.

In the case of YWHF, the enrichment ratio was at most 0.25.

As for AKHQ, the enrichment ratio was at most 0.25.

HHAY: the enrichment ratio is at most 0.25.

Take SCCT: the enrichment ratio stood at 3.81.

As to WCGE, the enrichment ratio was at most 0.25.

Values taken from a collection of fitness landscapes (doi:10.1126/science.1257360).
